Experimental findings from the supplement of paper PMC7580552 are described below.

Structures can show the parent of a compound that is named as a salt. This is one part of the list. Most values come without repeats; read them as rough.
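Also: stationary (unshaken) cultures in 96-well plates, started at OD600 0.05 from mid-exponential cells, with compounds supplied from DMSO stocks.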

The test deals with Escherichia coli W3110. The test can be described thus: planktonic growth (OD600) relative to untreated control; higher = more growth. The following applies: 10 µM; 20-24 h; 30 °C; TB.
`c1ccc2c(c1)OCC(C1=NCCN1)O2` (centres undefined) [Idazoxan hydrochloride] gave a planktonic growth of 103%. Compound `CCCCCC[C@H]1C(=O)O[C@H](C)[C@H](NC(=O)c2cccc(NC=O)c2O)C(=O)O[C@@H](C)[C@@H]1OC(=O)CC(C)C` [Antimycin A] returned a planktonic growth of 97%. In the case of `CC[N+]1(C)CCCC(OC(=O)C(O)(c2ccccc2)c2ccccc2)C1` (centres undefined) [Pipenzolate bromide] it was 95%. To `COc1cc2c(c(OC)c1OC)-c1ccc(OC)c(=O)cc1[C@@H](NC(C)=O)CC2` [Colchicine] belongs 102%; to `O=C(NCNC(=O)NC1C(=O)NC(=O)N1CO)NC1C(=O)NC(=O)N1CO` (centres undefined) [Imidurea], 86%; to `CC(=O)O[C@H]1CC[C@@]2(C)C(=CC[C@@H]3[C@@H]2CC[C@]2(C)C(=O)CC[C@@H]32)C1` [Dehydroisoandosterone 3-acetate], 94%. Consider `CN1C[C@H](CNC(=O)OCc2ccccc2)C[C@@H]2c3cccc4c3c(cn4C)C[C@H]21` [Metergoline], for which the planktonic growth amounted to 108%. To `Oc1ccc2c3c1O[C@H]1[C@@H](O)CC[C@@]4(O)[C@@H](C2)N(CC2CCC2)CC[C@]314` [Nalbuphine hydrochloride] belongs 97%; to `CC(C)c1cccc(C(C)C)c1O` [Propofol], 97%.

Compound `C[C@]12CC[C@H](O)C[C@H]1CC[C@@H]1[C@@H]2CC[C@]2(C)[C@@H](C3=CC(=O)OC3)CC[C@]12O` [Digitoxigenin] gave a planktonic growth of 99%. In the case of `C[C@]12CCC(=O)C=C1C=C[C@@H]1[C@@H]2CC[C@@]2(C)[C@H]1CC[C@@]2(O)CCC(=O)O` [Canrenoic acid potassium salt] it was 97%; in that of `CCCC(C)C1(CC)C(=O)NC(=O)NC1=O` (centres undefined) [Pentobarbital], 102%; in that of `C=CCN1CC[C@]23c4c5ccc(O)c4O[C@H]2C(=O)CC[C@@]3(O)[C@H]1C5` [Naloxone hydrochloride], 96%. To `CC(=O)O[C@H]1C[C@@H]2CC[C@@H]3[C@H](CC[C@@]4(C)[C@H]3C[C@H]([N+]3(C)CCCCC3)[C@@H]4OC(C)=O)[C@@]2(C)C[C@@H]1[N+]1(C)CCCCC1` [Pancuronium bromide] belongs 103%.

The compound `c1ccc2c(c1)Nc1ccccc1S2` [Phenothiazine] returned a planktonic growth of 101%. To `CC(NC(C)(C)C)C(=O)c1cccc(Cl)c1` (centres undefined) [Bupropion hydrochloride] belongs 106%; to `CN1CCC2(C)c3cc(O)ccc3N(C)C12` (single isomer, unassigned; (-)) [(-)-Eseroline fumarate salt], 110%; to `CN1CCN(C(=O)O[C@H]2c3nccnc3C(=O)N2c2ccc(Cl)cn2)CC1` [Eszopiclone], 101%. To `O=C1CC[C@@]2(O)[C@H]3Cc4ccc(O)c5c4[C@@]2(CCN3CC2CC2)[C@H]1O5` [Naltrexone hydrochloride dihydrate] belongs 101%; to `CN[C@@H]1[C@@H](O)[C@@H](O[C@@H]2[C@@H](O)[C@H](O[C@H]3O[C@H](CN)CC[C@H]3N)[C@@H](N)C[C@H]2N)OC[C@]1(C)O.CN[C@@H]1[C@@H](O)[C@@H](O[C@@H]2[C@@H](O)[C@H](O[C@H]3O[C@H]([C@@H](C)N)CC[C@H]3N)[C@@H](N)C[C@H]2N)OC[C@]1(C)O.CN[C@@H]1[C@@H](O)[C@@H](O[C@@H]2[C@@H](O)[C@H](O[C@H]3O[C@H]([C@@H](C)NC)CC[C@H]3N)[C@@H](N)C[C@H]2N)OC[C@]1(C)O` [Gentamicine sulfate], 45%; to `N[C@@H]1C[C@H]1c1ccccc1` [Tranylcypromine hydrochloride], 91%.

Turning to `NCC(CC(=O)O)c1ccc(Cl)cc1` (racemic) [Baclofen (R,S)], the planktonic growth came to 112%. To `CN1[C@@H]2C[C@@H](OC(=O)[C@H](CO)c3ccccc3)C[C@H]1[C@@H]1O[C@@H]12` [Scopolamine hydrochloride] belongs 94%; to `C#C[C@]1(O)CC[C@H]2[C@@H]3CCC4=CC(=O)CCC4=C3C=C[C@@]21CC` [Gestrinone], 111%.
